Among all 310,000 compounds or so, about 2,200 (0.71%) showed an effect of 50% or more. Effects have a minus sign here. The list shows a part of the results.

The target of the assay is human ether-à-go-go-related gene (hERG) potassium channel (human, UniProt Q12809). As to the kind of experiment: primary screen, population patch clamp on CHO cells stably expressing hERG.
Chain of human ether-à-go-go-related gene (hERG) potassium channel (Q12809 whole entry, looked up): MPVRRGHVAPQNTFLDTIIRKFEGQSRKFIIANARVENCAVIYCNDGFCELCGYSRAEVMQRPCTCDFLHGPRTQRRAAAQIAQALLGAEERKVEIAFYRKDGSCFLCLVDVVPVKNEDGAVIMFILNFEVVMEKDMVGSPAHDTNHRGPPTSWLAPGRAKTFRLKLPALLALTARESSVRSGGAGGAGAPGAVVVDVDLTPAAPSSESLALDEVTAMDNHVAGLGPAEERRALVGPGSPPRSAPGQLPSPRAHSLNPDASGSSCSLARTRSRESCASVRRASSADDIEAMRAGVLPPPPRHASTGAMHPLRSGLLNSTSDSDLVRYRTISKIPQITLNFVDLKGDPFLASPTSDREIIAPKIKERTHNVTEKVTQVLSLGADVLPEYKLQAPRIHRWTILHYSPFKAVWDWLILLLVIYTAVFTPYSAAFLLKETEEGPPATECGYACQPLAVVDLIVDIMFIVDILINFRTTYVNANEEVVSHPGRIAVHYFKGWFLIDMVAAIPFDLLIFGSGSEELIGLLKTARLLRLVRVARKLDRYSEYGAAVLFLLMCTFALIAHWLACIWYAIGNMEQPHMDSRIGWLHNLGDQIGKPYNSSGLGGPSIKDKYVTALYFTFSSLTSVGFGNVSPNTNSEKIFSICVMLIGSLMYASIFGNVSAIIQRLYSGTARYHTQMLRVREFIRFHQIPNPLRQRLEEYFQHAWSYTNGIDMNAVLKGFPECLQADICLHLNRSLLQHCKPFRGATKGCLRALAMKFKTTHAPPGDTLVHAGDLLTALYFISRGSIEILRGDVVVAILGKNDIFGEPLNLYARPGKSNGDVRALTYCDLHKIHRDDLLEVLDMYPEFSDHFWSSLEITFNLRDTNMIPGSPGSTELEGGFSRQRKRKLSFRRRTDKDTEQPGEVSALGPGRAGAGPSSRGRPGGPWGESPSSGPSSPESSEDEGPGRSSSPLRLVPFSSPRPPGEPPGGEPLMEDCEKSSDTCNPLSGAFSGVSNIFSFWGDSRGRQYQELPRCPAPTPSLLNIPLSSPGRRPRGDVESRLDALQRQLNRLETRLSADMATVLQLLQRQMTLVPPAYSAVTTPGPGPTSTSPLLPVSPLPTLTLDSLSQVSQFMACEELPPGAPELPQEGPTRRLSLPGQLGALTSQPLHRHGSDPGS
As for `O=C(CC(=O)NN=C1CCCCCC1)NCc1cccnc1`, the “hERG current change (%, negative = inhibition) at 1uM” value is listed as 8.13%.

As for `CC(C)CNC(=S)N(CCCO)Cc1cc2cc3c(cc2[nH]c1=O)OCO3`, the “hERG current change (%, negative = inhibition) at 1uM” value was determined as 7.57%. Take `COc1ccc(NC(=S)NC(NC(=O)CF)C(Cl)(Cl)Cl)cc1[N+](=O)[O-]` (stereo not drawn): the “hERG current change (%, negative = inhibition) at 1uM” value is 6.83%. Consider `COc1ccc(Oc2nc(C)cc(C)c2S(C)(=O)=O)cc1`, for which the “hERG current change (%, negative = inhibition) at 1uM” value came out at 7.92%. As to `CCn1ccc(C(=O)N2CCN(c3ncccn3)CC2)n1`, the “hERG current change (%, negative = inhibition) at 1uM” value was found to be 7.97%. To `CCc1n[nH]c(=S)n1/N=C/c1c[nH]c2ccc(Br)cc12` belongs 8.23%; to `CCOC(=O)C1(CC2CC2)CCN(Cc2cn(C)c3ccccc23)CC1`, 12.2%; to `Cc1nc(C(=O)Nc2cccc(Cl)c2Cl)nn1-c1cc(OC(C)C)c(Cl)cc1Cl`, 17.5%.

As to `O=C(Nc1cccc(NC(=O)c2cccc(F)c2)n1)c1cccc(F)c1`, the “hERG current change (%, negative = inhibition) at 1uM” value was 7.29%. Take `Cc1ccc(OCC(=O)N(Cc2ccc(N(C)C)cc2)C2CCS(=O)(=O)C2)cc1C` (stereo not drawn): the “hERG current change (%, negative = inhibition) at 1uM” value is recorded as 0.619%. Turning to `COc1ccc(-c2nc3ccccc3o2)cc1NC(=O)c1ccc(Br)o1`, the “hERG current change (%, negative = inhibition) at 1uM” value stood at 10.3%. As for `Cc1onc(-c2ccccc2)c1C(=O)NCCN1CCOCC1`, the “hERG current change (%, negative = inhibition) at 1uM” value stood at 15.6%. As to `COc1cccc(-c2nnc(NC(=O)c3ccc(S(=O)(=O)N4CC(C)OC(C)C4)cc3)o2)c1` (stereo not drawn), the “hERG current change (%, negative = inhibition) at 1uM” value was 3.65%. For `Cc1ccc(NC(=S)NCC(O)c2ccccc2)c(C)c1` (stereo not drawn), the “hERG current change (%, negative = inhibition) at 1uM” value is 17.6%.

For the compound `O=C(N/N=C/c1ccc[nH]1)c1cccnc1`, the “hERG current change (%, negative = inhibition) at 1uM” value was 13.1%.

With `CCOc1ccc(N2C(=O)Nc3ccccc3C2(O)C(=O)NCc2ccccc2)cc1` (stereo not drawn), the “hERG current change (%, negative = inhibition) at 1uM” value was determined as 14.4%. Turning to `COc1cccc(-c2cc(C(F)(F)F)n3nc(C(=O)N4CCC5(CC4)OCCO5)cc3n2)c1`, the “hERG current change (%, negative = inhibition) at 1uM” value came to 1.68%. In the case of `CCOC(=O)c1c(-c2ccc(C)cc2)csc1/N=C(\C)C1=C(O)c2ccccc2C1=O`, the “hERG current change (%, negative = inhibition) at 1uM” value came out at 13.2%. For `COC(=O)CCN(c1ccccc1)S(=O)(=O)c1cc(-c2cc(C)no2)ccc1C`, the “hERG current change (%, negative = inhibition) at 1uM” value is reported as 3.76%. The same measure for `CN(C)/C=N/C(=S)Nc1ccccc1F`: 1.45%. Regarding `O=C(CCC(=O)OCc1cccc(C(=O)Oc2ccccc2)c1)Nc1cccc2ccccc12`, the “hERG current change (%, negative = inhibition) at 1uM” value was determined as 11.8%. Regarding `O=C(COC(=O)Cc1ccc(F)cc1)NCc1ccco1`, the “hERG current change (%, negative = inhibition) at 1uM” value is reported as 6.18%. The same measure for `Cc1cccc2cc(C#N)c(SCC(=O)Nc3ccccc3N3CCOCC3)nc12`: 13.6%; for `O=C1CCN(C(=O)CSc2ccc(Cl)cc2)N1`: 6.99%.

The values are drawn from PMC4336329 (PLoS ONE, 2015).
